Measured values taken from PubChem BioAssay (Tox21).
Inconclusive results, whose numbers are uncertain, are shown with a selection of clear calls. For part of these data: Potencies of inconclusive entries are doubtful fits and often do not repeat. Active and inactive are the calls of the source. Unless noted, calls follow the shape of the dose curve; as a rule, active = well fitted curve in the direction sought with a large enough effect in the repeat runs; inconclusive = weak or mixed curves; inactive = no such curve, though single readings can be large; an effect the other way counts as inactive or inconclusive.

Columns and labels:
[1] = qHTS assay to identify small molecule agonists of the RXR signaling pathway - cell viability counter screen (AID 1159529); settings: RXR-alpha-bla HEK293T viability, CellTiter-Glo, 16 h; series mostly up to 76.8 µM; also: nearly all actives have a fitted effect of over 50% in size; also: potency is read from the fitted curve at half-maximal effect
Outline: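 HEK 293T RXRa-bla cells, 2% CS-FBS; 5 h settle; cpd 16 h 37 C, 5% CO2; CellTiter-Glo 30 min RT, luminescence. Tetraoctyl ammonium bromide as positive control.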

[2] = biological target: Cytochrome P450 2C9 (Homo sapiens) (UniProt P11712); test: Cytochrome P450 Family 2 Subfamily C Member 9 (CYP2C9) small molecule antagonists: luciferase reporter qHTS assay (AID 1671198); settings: P450-Glo CYP2C9 enzyme assay, luciferin luminescence; series mostly up to 115 µM; also: nearly all actives have a fitted effect of over 50% in size; also: potency is read from the fitted curve at half-maximal effect; as to activity change, negative = inhibition: % is scaled to controls: 0 for no effect and ±100 for the full control effect
Chain of UniProt P11712 (P11712 whole entry, looked up): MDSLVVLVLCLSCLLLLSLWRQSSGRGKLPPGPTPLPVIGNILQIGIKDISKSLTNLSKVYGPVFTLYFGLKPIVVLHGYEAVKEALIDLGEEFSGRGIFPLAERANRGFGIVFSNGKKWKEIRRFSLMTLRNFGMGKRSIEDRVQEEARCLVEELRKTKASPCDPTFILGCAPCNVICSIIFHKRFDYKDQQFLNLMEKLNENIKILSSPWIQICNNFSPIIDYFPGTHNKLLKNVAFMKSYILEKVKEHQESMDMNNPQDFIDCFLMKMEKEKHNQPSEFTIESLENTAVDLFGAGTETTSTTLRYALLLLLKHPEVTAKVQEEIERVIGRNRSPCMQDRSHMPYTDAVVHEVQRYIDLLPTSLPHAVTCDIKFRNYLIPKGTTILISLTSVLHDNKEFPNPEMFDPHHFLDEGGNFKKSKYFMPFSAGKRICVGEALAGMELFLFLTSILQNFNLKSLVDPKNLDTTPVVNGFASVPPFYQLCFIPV
Outline: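 P450-Glo proluciferin substrate with CYP2C9 enzyme; 10 min RT preincubation, then NADPH regeneration 1 h at 37C; luciferin detection reagent 20 min RT, luminescence in relative luminescence units.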

[3] = biological target: Cytochrome P450 1A2 (Homo sapiens) (UniProt P05177); test: Cytochrome P450 Family 1 Subfamily A Member 2 (CYP1A2) small molecule antagonists: luciferase reporter qHTS assay (AID 1671199); settings: P450-Glo CYP1A2 enzyme, luciferin luminescence, 1 h; series mostly up to 115 µM; also: nearly all actives have a fitted effect of over 50% in size; also: potency is read from the fitted curve at half-maximal effect
Chain of UniProt P05177 (P05177 whole entry, looked up): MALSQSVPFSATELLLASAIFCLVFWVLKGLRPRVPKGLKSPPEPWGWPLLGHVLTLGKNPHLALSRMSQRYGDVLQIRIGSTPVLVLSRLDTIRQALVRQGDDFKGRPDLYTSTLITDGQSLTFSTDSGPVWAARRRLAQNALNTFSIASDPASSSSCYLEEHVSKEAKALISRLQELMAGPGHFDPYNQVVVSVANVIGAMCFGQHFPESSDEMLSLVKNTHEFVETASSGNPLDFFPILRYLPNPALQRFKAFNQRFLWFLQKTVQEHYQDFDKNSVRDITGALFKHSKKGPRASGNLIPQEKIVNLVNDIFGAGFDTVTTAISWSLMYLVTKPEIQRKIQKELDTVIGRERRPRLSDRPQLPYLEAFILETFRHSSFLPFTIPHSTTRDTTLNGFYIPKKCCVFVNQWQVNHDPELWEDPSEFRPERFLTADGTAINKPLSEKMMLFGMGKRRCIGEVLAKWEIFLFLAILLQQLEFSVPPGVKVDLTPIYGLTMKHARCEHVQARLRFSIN
Outline: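 CYP1A2 turnover of a luminogenic substrate was quantified after 1 h with NADPH regeneration at room temperature. Furafylline served as positive control.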

[4] = qHTS assay for small molecule disruptors of the mitochondrial membrane potential (AID 720635); settings: HepG2 mitochondrial membrane potential, Mito-MPS dye ratio; ratio activity, negative = MMP loss: at 83.2 µM (top of the series) unless noted; also: potency is read from the fitted curve at half-maximal effect; as to ratio activity, negative = MMP loss: % is scaled to controls: 0 for no effect and ±100 for the full control effect
Outline: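 HepG2 cells exposed to compound 1 hr at 37C, then Mito-MPS dye 30 min. Ratio read of aggregate (540/590 nm) versus monomer (490/535 nm) fluorescence.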

[5] = biological target: Glucocorticoid receptor (Homo sapiens) (UniProt P04150); test: qHTS assay to identify small molecule antagonists of the glucocorticoid receptor (GR) signaling pathway (AID 720692; active = well fitted inhibition curve with a large enough effect in the signal ratio in the repeat runs, not every such curve was filed as active; inconclusive = weak or mixed curves, or effect the other way; inactive = no such curve, though single readings can be large or run the other way; the % refers to the signal ratio; also: potency is read from the fitted curve at half-maximal effect); settings: GR-bla HeLa, beta-lactamase FRET ratio, dexamethasone-stimulated, 18 h; activity change, negative = inhibition: at 58.5 µM (top of the series) unless noted
Chain of UniProt P04150 (P04150 whole entry, looked up): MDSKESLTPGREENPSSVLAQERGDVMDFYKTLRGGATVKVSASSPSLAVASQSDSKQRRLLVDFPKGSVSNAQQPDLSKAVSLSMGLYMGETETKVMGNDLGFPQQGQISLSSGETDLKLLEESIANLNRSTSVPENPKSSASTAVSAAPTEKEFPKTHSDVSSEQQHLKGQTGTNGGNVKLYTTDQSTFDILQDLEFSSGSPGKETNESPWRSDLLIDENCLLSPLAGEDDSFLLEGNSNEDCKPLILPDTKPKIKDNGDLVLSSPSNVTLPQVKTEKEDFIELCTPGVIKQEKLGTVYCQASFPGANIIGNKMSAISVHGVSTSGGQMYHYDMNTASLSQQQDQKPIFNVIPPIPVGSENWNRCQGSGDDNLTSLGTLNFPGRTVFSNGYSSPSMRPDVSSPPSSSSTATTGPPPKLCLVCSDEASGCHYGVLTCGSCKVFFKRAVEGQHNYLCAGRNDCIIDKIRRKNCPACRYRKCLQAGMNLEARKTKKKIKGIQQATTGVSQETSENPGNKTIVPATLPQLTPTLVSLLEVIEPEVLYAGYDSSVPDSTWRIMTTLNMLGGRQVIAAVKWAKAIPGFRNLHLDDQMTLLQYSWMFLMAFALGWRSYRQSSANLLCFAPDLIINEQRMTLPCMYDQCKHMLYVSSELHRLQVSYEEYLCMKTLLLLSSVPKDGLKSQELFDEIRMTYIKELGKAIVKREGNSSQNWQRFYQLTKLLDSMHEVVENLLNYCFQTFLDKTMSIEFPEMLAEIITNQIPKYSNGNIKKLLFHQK
Outline: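 Dexamethasone (5 nM final) stimulated a stably integrated GRE-beta-lactamase reporter in HeLa cells during 18 h co-incubation with compounds; signal was quantified as fluorescence intensity of B/G FRET substrate after 2 h.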

[6] = qHTS assay for identifying genotoxic compounds that show differential cytotoxicity against isogenic chicken DT40 cell lines with known DNA damage response pathways - Rev3 mutant cell line (AID 743014); settings: chicken DT40 Rev3-/- viability, CellTiter-Glo, 40 h; activity, negative = cytotoxicity: at 68.4 µM (top of the series); also: potency is read from the fitted curve at half-maximal effect; nearly all actives have a fitted effect of over 55% in size
[7] = biological target: Peroxisome proliferator-activated receptor gamma (Homo sapiens) (UniProt P37231); test: qHTS assay to identify small molecule antagonists of the peroxisome proliferator-activated receptor gamma (PPARg) signaling pathway (AID 743191; calls by dose curve; also: % is scaled to controls: 0 for no effect and ±100 for the full control effect; nearly all actives have a fitted effect of over 30% in size); settings: HEK293H PPARg-UAS-bla, beta-lactamase ratio, antagonist, 17 h; ratio activity, negative = inhibition: at 62.6 µM (top of the series) unless noted
Chain of UniProt P37231 (P37231 whole entry, looked up): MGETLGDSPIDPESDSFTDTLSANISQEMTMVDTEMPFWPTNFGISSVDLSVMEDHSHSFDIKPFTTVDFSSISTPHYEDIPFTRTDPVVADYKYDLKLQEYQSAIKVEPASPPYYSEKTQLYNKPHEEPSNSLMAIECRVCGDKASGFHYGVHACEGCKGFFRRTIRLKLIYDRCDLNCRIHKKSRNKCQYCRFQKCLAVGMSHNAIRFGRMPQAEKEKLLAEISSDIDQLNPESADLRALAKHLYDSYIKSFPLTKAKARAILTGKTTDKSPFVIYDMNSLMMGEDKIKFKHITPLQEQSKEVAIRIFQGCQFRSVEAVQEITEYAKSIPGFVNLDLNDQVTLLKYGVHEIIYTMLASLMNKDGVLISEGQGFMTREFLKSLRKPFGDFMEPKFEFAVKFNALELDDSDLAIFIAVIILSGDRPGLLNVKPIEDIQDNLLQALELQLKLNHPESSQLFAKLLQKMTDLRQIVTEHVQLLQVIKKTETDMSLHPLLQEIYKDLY
Outline: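 GeneBLAzer PPARg UAS-bla HEK293H cells, 5 h post-plating, exposed to compounds 17 h at 37C. LiveBLAzer B/G FRET substrate added for 1 h at room temperature; beta-lactamase reporter read by fluorescence intensity.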

[8] = qHTS assay for small molecule agonists of the antioxidant response element (ARE) signaling pathway (AID 743202; active = well fitted activation curve with a large enough effect in the signal ratio in the repeat runs, not every such curve was filed as active; inconclusive = weak or mixed curves, or effect the other way; inactive = no such curve, though single readings can be large or run the other way; the % refers to the signal ratio; also: potency is read from the fitted curve at half-maximal effect); settings: HepG2 ARE-bla reporter, beta-lactamase FRET, 16 h; activation: at 73.3 µM (top of the series) unless noted
Outline: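 Agonist mode reporter screen: HepG2 cells with ARE-controlled beta-lactamase are incubated with test compounds for 16 h at 37 C, and beta-lactamase activity is measured as fluorescence of cleaved B/G FRET substrate.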

[9] = biological target: Vitamin D3 receptor (Homo sapiens) (UniProt P11473); test: qHTS assay to identify small molecule antagonists of the vitamin D receptor (VDR) signaling pathway (AID 743223; active = well fitted inhibition curve with a large enough effect in the signal ratio in the repeat runs, not every such curve was filed as active; inconclusive = weak or mixed curves, or effect the other way; inactive = no such curve, though single readings can be large or run the other way; the % refers to the signal ratio; also: % is scaled to controls: 0 for no effect and ±100 for the full control effect); settings: VDR-UAS-bla HEK293T, beta-lactamase FRET ratio, 16 h; activity change, negative = inhibition: at 61 µM (top of the series) unless noted
Chain of UniProt P11473 (P11473 whole entry, looked up): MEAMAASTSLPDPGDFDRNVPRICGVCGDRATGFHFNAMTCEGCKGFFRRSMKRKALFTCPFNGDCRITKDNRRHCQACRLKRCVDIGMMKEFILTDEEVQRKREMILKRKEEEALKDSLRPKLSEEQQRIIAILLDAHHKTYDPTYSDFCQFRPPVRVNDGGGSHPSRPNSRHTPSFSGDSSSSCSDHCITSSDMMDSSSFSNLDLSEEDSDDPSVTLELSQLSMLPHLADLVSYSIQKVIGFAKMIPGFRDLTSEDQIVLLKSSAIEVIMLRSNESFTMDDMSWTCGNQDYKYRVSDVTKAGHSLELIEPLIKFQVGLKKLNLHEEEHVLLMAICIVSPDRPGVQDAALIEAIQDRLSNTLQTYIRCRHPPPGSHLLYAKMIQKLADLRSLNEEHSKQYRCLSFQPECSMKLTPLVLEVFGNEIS
Outline: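 Antagonist mode uses 1alpha,25-dihydroxyvitamin D3 at 3 nM final as stimulus. VDR-bla cells receive compounds in DMSO, incubate 16 h at 37C, then a beta-lactamase FRET substrate for 2 h at room temperature before fluorescence measurement.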

[10] = biological target: Retinoic acid receptor RXR-alpha (Homo sapiens) (UniProt P19793); test: qHTS assay to identify small molecule agonists of the RXR signaling pathway (AID 1159527; calls by dose curve; also: nearly all actives have a fitted effect of over 35% in size; also: potency is read from the fitted curve at half-maximal effect); settings: HEK293T RXRa-UAS-bla, beta-lactamase ratio, 16 h; activation: at 76.8 µM (top of the series) unless noted
Chain of UniProt P19793 (P19793 whole entry, looked up): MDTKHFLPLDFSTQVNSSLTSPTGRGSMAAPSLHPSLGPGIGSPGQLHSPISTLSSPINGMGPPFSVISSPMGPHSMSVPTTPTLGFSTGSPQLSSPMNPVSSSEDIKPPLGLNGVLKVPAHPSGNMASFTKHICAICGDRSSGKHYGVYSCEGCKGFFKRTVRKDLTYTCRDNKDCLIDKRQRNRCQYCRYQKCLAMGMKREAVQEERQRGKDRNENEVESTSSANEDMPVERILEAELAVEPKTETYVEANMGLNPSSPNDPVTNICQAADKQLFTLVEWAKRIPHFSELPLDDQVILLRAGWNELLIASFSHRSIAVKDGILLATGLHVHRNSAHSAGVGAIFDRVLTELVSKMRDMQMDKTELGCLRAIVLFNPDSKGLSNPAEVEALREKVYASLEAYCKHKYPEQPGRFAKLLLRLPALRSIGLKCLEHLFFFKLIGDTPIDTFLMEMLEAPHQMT
Outline: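 Read-out: beta-lactamase FRET ratio (405 nm excitation, 460 and 530 nm emission) after 2 hr substrate loading at room temperature. Cells were RXR-alpha-UAS-bla HEK 293T treated with compounds for 16 hr in 2% charcoal-stripped FBS medium.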

[11] = qHTS assay to identify small molecule agonists of the progesterone receptor (PR) signaling pathway - cell viability counter screen (AID 1346799; calls by dose curve; also: nearly all actives have a fitted effect of over 45% in size; also: potency is read from the fitted curve at half-maximal effect); settings: PR-UAS-bla HEK293T viability, CellTiter-Glo luminescence, 16 h; series mostly up to 92.4 µM
Outline: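 Luminescence from CellTiter-Glo, added after the beta-lactamase FRET read in the same wells, gave cytotoxicity in PR-UAS-bla HEK293T cells treated with compounds for 16 hr at 37C.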

[12] = biological target: Cytochrome P450 2D6 (Homo sapiens) (UniProt P10635); test: Cytochrome P450 Family 2 Subfamily D Member 6 (CYP2D6) small molecule antagonists: luciferase reporter qHTS assay (AID 1671196); settings: P450-Glo CYP2D6 enzyme assay, luciferin luminescence, 1 h; series mostly up to 115 µM; also: potency is read from the fitted curve at half-maximal effect; nearly all actives have a fitted effect of over 50% in size
Chain of UniProt P10635 (P10635 whole entry, looked up): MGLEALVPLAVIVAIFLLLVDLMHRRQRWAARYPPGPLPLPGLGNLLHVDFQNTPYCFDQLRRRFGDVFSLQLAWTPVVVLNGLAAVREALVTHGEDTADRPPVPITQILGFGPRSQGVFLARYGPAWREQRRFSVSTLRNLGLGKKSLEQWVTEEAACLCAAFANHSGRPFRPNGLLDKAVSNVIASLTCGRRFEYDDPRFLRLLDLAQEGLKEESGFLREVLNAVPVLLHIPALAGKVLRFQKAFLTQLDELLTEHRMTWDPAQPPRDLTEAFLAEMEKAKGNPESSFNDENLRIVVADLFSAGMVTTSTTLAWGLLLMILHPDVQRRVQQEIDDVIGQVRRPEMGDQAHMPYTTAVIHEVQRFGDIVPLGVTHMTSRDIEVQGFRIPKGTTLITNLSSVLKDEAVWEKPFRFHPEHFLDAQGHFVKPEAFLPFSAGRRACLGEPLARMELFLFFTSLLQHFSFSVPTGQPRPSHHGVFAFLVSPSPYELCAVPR
Outline: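 Luminescence (RLU), read 20 min after detection reagent, indicated CYP2D6 conversion of proluciferin to luciferin during a 1 h NADPH-dependent reaction at room temperature.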

[13] = qHTS assay to identify small molecule agonists of the farnesoid-X-receptor (FXR) signaling pathway - cell viability counter screen (AID 743218); settings: FXR-bla HEK293T viability, CellTiter-Glo luminescence, 16 h; viability change, negative = cytotoxic: at 62.6 µM (top of the series); also: nearly all actives have a fitted effect of over 45% in size; also: potency is read from the fitted curve at half-maximal effect
Outline: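 After 16 h at 37 C with test compounds, FXR-bla HEK 293T cells were given LiveBLAzer B/G substrate for 2 h at RT and then CellTiter-Glo; luminescence was taken after 30 min.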

[14] = biological target: Estrogen receptor beta (Homo sapiens) (UniProt Q92731); test: qHTS assay to identify small molecule antagonists of the estrogen receptor beta (ER-beta) signaling pathway (AID 1259378; active = well fitted inhibition curve with a large enough effect in the signal ratio in the repeat runs, not every such curve was filed as active; inconclusive = weak or mixed curves, or effect the other way; inactive = no such curve, though single readings can be large or run the other way; the % refers to the signal ratio; also: % is scaled to controls: 0 for no effect and ±100 for the full control effect); settings: ER-beta-UAS-bla HEK293T, beta-lactamase FRET ratio, 16 h; activity, negative = inhibition: at 92.4 µM (top of the series) unless noted
Chain of UniProt Q92731 (Q92731 whole entry, looked up): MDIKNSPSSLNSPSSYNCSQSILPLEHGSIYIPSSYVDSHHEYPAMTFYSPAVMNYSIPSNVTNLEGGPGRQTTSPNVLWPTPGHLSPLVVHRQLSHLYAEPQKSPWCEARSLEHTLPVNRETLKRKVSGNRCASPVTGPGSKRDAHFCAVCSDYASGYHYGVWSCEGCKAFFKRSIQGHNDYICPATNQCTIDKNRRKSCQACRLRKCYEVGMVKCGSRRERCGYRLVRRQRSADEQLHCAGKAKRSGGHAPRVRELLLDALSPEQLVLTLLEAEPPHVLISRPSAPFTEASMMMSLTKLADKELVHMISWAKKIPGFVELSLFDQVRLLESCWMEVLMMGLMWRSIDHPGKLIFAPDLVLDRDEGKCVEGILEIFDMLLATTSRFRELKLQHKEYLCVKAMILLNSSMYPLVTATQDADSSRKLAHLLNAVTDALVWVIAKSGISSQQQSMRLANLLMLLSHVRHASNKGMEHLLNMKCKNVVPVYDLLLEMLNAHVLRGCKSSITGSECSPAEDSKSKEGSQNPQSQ
Outline: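 ER-beta-UAS-bla HEK293T cells in 2% charcoal-stripped FBS medium treated with compound plus 1nM final 17-beta-estradiol for 16 hr at 37C. Beta-lactamase reporter read by FRET substrate fluorescence after 2 hours at room temperature.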

[15] = qHTS assay to identify small molecule antagonists of the sonic hedgehog signaling (Shh) pathway (AID 1259369; calls by dose curve; also: potency is read from the fitted curve at half-maximal effect; nearly all actives have a fitted effect of over 45% in size); settings: NIH/3T3 Gli1-Luc reporter, Shh antagonist, luminescence 24 h; series mostly up to 92.4 µM
Outline: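 Conditioned medium drives Shh signalling in 3T3Gli1-Luc cells; compounds in DMSO co-applied, 24hr at 37 C, then luciferase luminescence.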

[16] = qHTS assay to identify small molecule antagonists of the progesterone receptor (PR) signaling pathway - cell viability counter screen (AID 1346798); settings: PR-UAS-bla HEK293T viability, CellTiter-Glo luminescence, 16 h; series mostly up to 92.4 µM
Outline: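 HEK293T PR-UAS-bla, 2% charcoal-stripped FBS; 4 hr pre-plate; cpd + R5020, 16 h 37C; LiveBLAzer read first; then CellTiter-Glo 30 min RT, luminescence.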

[17] = biological target: Cytochrome P450 2C19 (Homo sapiens) (UniProt P33261); test: Cytochrome P450 Family 2 Subfamily C Member 19 (CYP2C19) small molecule antagonists: luciferase reporter qHTS assay (AID 1671197); settings: P450-Glo CYP2C19 enzyme, luciferin luminescence, 1 h; series mostly up to 115 µM; also: nearly all actives have a fitted effect of over 65% in size; also: potency is read from the fitted curve at half-maximal effect
Chain of UniProt P33261 (P33261 whole entry, looked up): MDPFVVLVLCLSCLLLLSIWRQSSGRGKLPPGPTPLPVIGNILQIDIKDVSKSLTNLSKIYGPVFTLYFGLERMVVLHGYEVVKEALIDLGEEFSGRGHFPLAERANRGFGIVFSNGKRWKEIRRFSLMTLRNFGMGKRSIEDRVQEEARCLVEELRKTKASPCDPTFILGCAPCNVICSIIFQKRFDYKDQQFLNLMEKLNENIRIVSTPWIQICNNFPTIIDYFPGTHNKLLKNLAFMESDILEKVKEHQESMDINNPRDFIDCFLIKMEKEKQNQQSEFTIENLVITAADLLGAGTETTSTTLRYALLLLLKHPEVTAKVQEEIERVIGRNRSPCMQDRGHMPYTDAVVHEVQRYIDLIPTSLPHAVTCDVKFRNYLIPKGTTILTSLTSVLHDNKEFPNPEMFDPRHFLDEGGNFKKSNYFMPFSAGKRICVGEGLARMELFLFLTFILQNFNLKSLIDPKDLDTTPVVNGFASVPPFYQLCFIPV
Outline: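 CYP2C19 P450-Glo, 1536-well qHTS. Cpd + enzyme/proluciferin substrate 10 min RT; + NADPH regen, 37C 1 h; stop with luciferin detection reagent, 20 min RT, luminescence (RLU). Pos ctrl ketoconazole.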

[18] = qHTS assay to identify small molecule antagonists of the peroxisome proliferator-activated receptor delta (PPARd) signaling pathway - cell viability counter screen (AID 743213); settings: PPARd-bla HEK293H viability, CellTiter-Glo luminescence, 17 h; viability change, negative = cytotoxic: at 62 µM (top of the series) unless noted
Outline: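 HEK293H PPARd UAS-bla cells, 5 h pre-incubation, compound + L165041 300 nM final, 17 h 37 C; B/G FRET substrate 2 h RT; then CellTiter-Glo 30 min RT, luminescence.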

[19] = qHTS assay to identify small molecule antagonists of the thyroid receptor (TR) signaling pathway - cell viability counter screen (AID 743064); settings: GH3.TRE-Luc viability, CellTiter-Fluor, 24 h; activity change, negative = cytotoxic: at 70.3 µM (top of the series) unless noted; also: nearly all actives have a fitted effect of over 50% in size; also: potency is read from the fitted curve at half-maximal effect
Outline: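 Fluorescence from CellTiter-Fluor, added after 23.5 h exposure at 37 °C, reported viability of GH3.TRE-Luc cells co-treated with compound and 1 nM T3. Measured in the same wells as the luciferase TR readout.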

[20] = biological target: Progesterone receptor (Homo sapiens) (UniProt P06401); test: qHTS assay to identify small molecule antagonists of the progesterone receptor (PR) signaling pathway (AID 1346795; active = well fitted inhibition curve with a large enough effect in the signal ratio in the repeat runs, not every such curve was filed as active; inconclusive = weak or mixed curves; the % refers to the signal ratio; also: potency is read from the fitted curve at half-maximal effect); settings: PR-UAS-bla HEK293T, beta-lactamase FRET ratio, 16 h; activity change, negative = inhibition: at 92.4 µM (top of the series) unless noted
Outline: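 Read-out is fluorescence from the LiveBLAzer B/G FRET substrate, cleaved by a UAS-controlled beta-lactamase in PR-UAS-bla HEK293T cells after 16 hr exposure to compound plus 1 nM promegestone (final), followed by 2 hr at room temperature.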
Tags tell the direction and shape of the fitted curve or compound fluorescence and quenching.

SMILES: C=CCOC(N)=O
- Potency [1]: inactive
- Potency [2]: inactive
- Potency [3]: inconclusive: 71 µM [inhibitor, partial curve, poor fit]

SMILES: CC[N+]1(CCOC(=O)C(O)(c2ccccc2)c2ccccc2)CCCCC1
- Potency [4]: inactive
- Potency [5]: inconclusive: 0.952 µM [activator, full curve, poor fit]
- Potency [6]: inconclusive: 33.5 µM [rising, partial curve, poor fit]
- Potency [7]: inactive
- Potency [8]: inconclusive: 11.9 µM [rising, partial curve]
- Potency [9]: inactive
- Potency [10]: inactive
- Potency [11]: inactive
- Potency [12]: active: 0.977 µM
- Potency [3]: inactive

SMILES: CCCSC(=O)N(CCC)CCC
- activity change, negative = inhibition [5]: inconclusive: 6.74%
- activity change, negative = inhibition [9]: inconclusive: 27.5%
- Potency [10]: inactive

SMILES: Cc1ccccc1CO[C@@H]1C[C@@]2(C(C)C)CC[C@]1(C)O2
- ratio activity, negative = MMP loss [4]: inconclusive: -11%
- Potency [9]: inactive
- Potency [1]: inconclusive: 49 µM [cytotoxic, partial curve, poor fit]
- Potency [12]: inconclusive: 79.6 µM [inhibitor, single point]

SMILES: C=C(Cl)Cl
- Potency [5]: inactive
- ratio activity, negative = inhibition [7]: inconclusive: 1.94% [at 81.1 µM]
- Potency [8]: inactive
- Potency [1]: inactive
- Potency [2]: inconclusive: 67.4 µM [inhibitor, partial curve, poor fit]
- Potency [3]: inconclusive: 37.9 µM [inhibitor, partial curve]

SMILES: O=C(O)CF
- Potency [4]: inactive
- Potency [7]: inactive
- Potency [8]: inactive
- Potency [13]: inactive
- Potency [10]: inactive
- activity, negative = inhibition [14]: inconclusive: 26.1%
- Potency [11]: inconclusive: 54.5 µM [cytotoxic, partial curve, poor fit] and inactive
- Potency [3]: inconclusive: 63.3 µM [inhibitor, partial curve] and inactive

SMILES: CCc1ccc(C2CCNCC2)cc1
- Potency [8]: inactive
- Potency [1]: inactive
- Potency [15]: inconclusive: 0.0841 µM [inhibitor, partial curve, poor fit]
- Potency [16]: inconclusive: 13.3 µM [cytotoxic, partial curve]
- Potency [17]: inactive
- Potency [3]: inactive

SMILES: CCCCCCC(=O)CCCCCC/C=C/C[C@@H](O)[C@H](O)[C@@](N)(CO)C(=O)O
- Potency [4]: inactive
- activity change, negative = inhibition [5]: inconclusive: 4.47%
- ratio activity, negative = inhibition [7]: inconclusive: -8.54% [at 29.1 µM]
- activation [8]: inconclusive: -12.7% [at 34.3 µM]
- Potency [13]: inconclusive: 8.2 µM [rising, partial curve]
- activation [10]: inactive: 1.63% [at 15.8 µM]
- activity change, negative = inhibition [17]: inactive: 14.2% [at 23.6 µM]

SMILES: Nc1ncn[nH]1
- Potency [4]: inactive
- Potency [7]: inactive
- Potency [18]: inactive
- Potency [13]: inconclusive: 1.43 µM [rising, full curve, poor fit]
- Potency [10]: inactive

SMILES: CCC12COCN1COC2
- Potency [4]: inconclusive: 15.4 µM [rising, single point]
- ratio activity, negative = MMP loss [4]: inconclusive: 21.3%
- Potency [7]: inactive
- activation [8]: inconclusive: 3.21%
- Potency [10]: inconclusive: 30.7 µM [activator, partial curve]
- Potency [15]: inconclusive: 6.87 µM [inhibitor, single point]
- Potency [11]: inconclusive: 15.2 µM [cytotoxic, single point]
- Potency [17]: inconclusive: 62.8 µM [inhibitor, partial curve]
- Potency [2]: inconclusive: 79.8 µM [inhibitor, partial curve] and inactive

SMILES: N#Cc1ccc(N(CC(N)=O)CC(F)(F)F)cc1C(F)(F)F
- Potency [4]: inconclusive: 38.6 µM [activator, partial curve, poor fit]
- Potency [19]: inactive
- ratio activity, negative = inhibition [7]: inconclusive: 14.8%
- Potency [8]: inactive
- Potency [13]: inactive
- Potency [9]: inactive
- Potency [10]: inactive
- Potency [20]: inconclusive: 24.3 µM
- Potency [3]: active: 39.9 µM

SMILES: O=C(Cl)c1ccccc1F
- Potency [4]: inactive
- Potency [6]: inconclusive: 67.7 µM [cytotoxic, single point]
- Potency [19]: inconclusive: 24 µM [rising, single point]
- Potency [7]: inactive
- activation [10]: inconclusive: 11.4%
- Potency [12]: inconclusive: 39.4 µM [inhibitor, partial curve]
- Potency [17]: inconclusive: 78.7 µM [inhibitor, single point]
- Potency [2]: inconclusive: 39.4 µM [inhibitor, partial curve, poor fit]
